Measured values reported in article PMC11995724, “Antibiotic target discovery by integrated phenotypic and activity-based profiling of electrophilic fragments” (Cell chemical biology, 2025).
The campaign covered roughly 3,200 compounds. About 110 (3.4%) showed an effect of 50% or more. The list shows a part of the results.

System: T1, V. cholerae SAD30
T1 construct: SAD30
Set-up: species or system S. aureus MSSA476 (TSB) or V. cholerae SAD30 (LB); 384-well bacterial growth screen at 25 uM, OD600 relative to DMSO control
Conditions: relative growth, OD600, LB; 25 µM; inhibitor

| SMILES | % of control remaining |
| --- | --- |
| N#CCSc1ccccc1NC(=O)CCl [6-C11, 2-chloro-N-{2-[(cyanomethyl)sulfanyl]phenyl}acetamide] | 90.0938% |
| COc1ccc(NC(C)=O)cc1NC(=O)C(C)Cl (stereo not drawn) [4-M08, 2-chloro-N-(5-acetamido-2-methoxyphenyl)propanamide] | 98.6845% |
| C=CC(=O)NCCCn1cnc2ccccc21 [2-P11, N-[3-(1H-1,3-benzodiazol-1-yl)propyl]prop-2-enamide] | 103.32% |
| O=C(CCl)C1(F)CCCCC1 [10-K19, 2-chloro-1-(1-fluorocyclohexyl)ethan-1-one] | 99.7467% |
| C=CC(=O)N1C2C=C(c3nccn3C)CC1CC2 (stereo not drawn) [3-G03, 1-[3-(1-methyl-1H-imidazol-2-yl)-8-azabicyclo[3.2.1]oct-2-en-8-yl]prop-2-en-1-one] | 111.145% |
| CC(C)NC(=O)C(C#N)=Cc1cccc(Cl)c1Cl [9-C07, 2-cyano-3-(2,3-dichlorophenyl)-N-(propan-2-yl)prop-2-enamide] | 84.9082% |
| C=CC(=O)N1CCC(C(=O)NC2CCN(C(=O)C(C)(C)C)CC2)CC1 [3-I21, N-[1-(2,2-dimethylpropanoyl)piperidin-4-yl]-1-(prop-2-enoyl)piperidine-4-carboxamide] | 96.3242% |
| C=CC(=O)Nc1cc(NC(=O)c2cnn(-c3ccccc3)c2)ccc1F [2-G11, N-[4-fluoro-3-(prop-2-enamido)phenyl]-1-phenyl-1H-pyrazole-4-carboxamide] | 76.1459% |
| N#CC(=Cc1ccco1)C(=O)Nc1cc2c(cc1Cl)NC(=O)CO2 [9-D20, N-(6-chloro-3-oxo-3,4-dihydro-2H-1,4-benzoxazin-7-yl)-2-cyano-3-(furan-2-yl)prop-2-enamide] | 90.0748% |
| C=CC(=O)N(C)Cc1ncc(C(F)(F)F)n1C [2-D19, N-methyl-N-{[1-methyl-5-(trifluoromethyl)-1H-imidazol-2-yl]methyl}prop-2-enamide] | 94.6734% |
| C=CC(=O)N1CCOC(Cn2cncn2)C1 (stereo not drawn) [1-F20, 1-{2-[(1H-1,2,4-triazol-1-yl)methyl]morpholin-4-yl}prop-2-en-1-one] | 90.2846% |
| CCN(CC)c1ccc(NC(=O)CCl)cc1 [6-N10, 2-chloro-N-[4-(diethylamino)phenyl]acetamide] | 90.5489% |
| O=C(CCl)Nc1ccnn1Cc1cccs1 [5-O13, 2-chloro-N-{1-[(thiophen-2-yl)methyl]-1H-pyrazol-5-yl}acetamide] | 85.5732% |
| CCCN(CC1CC1)C(=O)CCl [5-H11, 2-chloro-N-(cyclopropylmethyl)-N-propylacetamide] | 93.1386% |
| C=CC(=O)N1CCOC2(CCCC2)C1 [3-I11, 1-{6-oxa-9-azaspiro[4.5]decan-9-yl}prop-2-en-1-one] | 77.0924% |
| CCN(CC)S(=O)(=O)c1ccc(Cl)c(NC(=O)CCl)c1 [5-J12, 2-chloro-N-[2-chloro-5-(diethylsulfamoyl)phenyl]acetamide] | 93.4748% |
| Cc1cc(C=C(C#N)C(=O)Nc2ccncc2)c(C)n1C1CC1 [8-K14, 2-cyano-3-(1-cyclopropyl-2,5-dimethyl-1H-pyrrol-3-yl)-N-(pyridin-4-yl)prop-2-enamide] | 66.6893% |
| CC(Cl)C(=O)Nc1ccc2c(c1)C(=O)c1ccccc1C2=O (stereo not drawn) [4-G06, 2-chloro-N-(9,10-dioxo-9,10-dihydroanthracen-2-yl)propanamide] | 77.1188% |
| C=CC(=O)NCC(=O)Nc1ccc2c[nH]nc2c1 [1-L11, N-{[(2H-indazol-6-yl)carbamoyl]methyl}prop-2-enamide] | 90.7324% |
| Cc1ccc(CN(C(=O)CCl)C2CC2)o1 [6-E03, 2-chloro-N-cyclopropyl-N-[(5-methylfuran-2-yl)methyl]acetamide] | 97.6775% |
| C=CC(=O)NCc1nc2c(s1)CCCC2 [1-G18, N-[(4,5,6,7-tetrahydro-1,3-benzothiazol-2-yl)methyl]prop-2-enamide] | 87.145% |
| CC(Cl)C(=O)Nc1cccc(-c2ncc3n2CCCC3)c1 (stereo not drawn) [5-F19, 2-chloro-N-(3-{5H,6H,7H,8H-imidazo[1,5-a]pyridin-3-yl}phenyl)propanamide] | 78.344% |
| C=CC(=O)NC1CCC(c2nc(-c3ccccc3)n[nH]2)CC1 (stereo not drawn) [1-P05, N-[4-(3-phenyl-1H-1,2,4-triazol-5-yl)cyclohexyl]prop-2-enamide] | 97.3094% |
| Cc1cc(C(=O)CCl)c(C)n1-c1ccccc1 [10-L20, 2-chloro-1-(2,5-dimethyl-1-phenyl-1H-pyrrol-3-yl)ethan-1-one] | 100.682% |
| Cc1cc(C(=O)CCl)c(C)n1CCc1cccs1 [10-F16, 2-chloro-1-{2,5-dimethyl-1-[2-(thiophen-2-yl)ethyl]-1H-pyrrol-3-yl}ethan-1-one] | 110.189% |
| CC(NC(=O)CCl)c1cc(F)ccc1N(C)C (stereo not drawn) [5-L11, 2-chloro-N-{1-[2-(dimethylamino)-5-fluorophenyl]ethyl}acetamide] | 95.3242% |
| N#CC(=Cc1cccnc1)C(=O)Nc1cccc2ccccc12 [8-L17, 2-cyano-N-(naphthalen-1-yl)-3-(pyridin-3-yl)prop-2-enamide] | 72.6717% |
| C=CC(=O)NCC(F)(F)c1cccnc1 [1-O12, N-[2,2-difluoro-2-(pyridin-3-yl)ethyl]prop-2-enamide] | 87.4439% |
| Cc1cc(C(=O)CCl)c(C)n1-c1cccc(Cl)c1 [10-N18, 2-chloro-1-[1-(3-chlorophenyl)-2,5-dimethyl-1H-pyrrol-3-yl]ethan-1-one] | 92.4216% |
| C=CC(=O)N[C@H]1CCO[C@@H]1c1ccnn1C [2-K19, N-[(2S,3S)-2-(1-methyl-1H-pyrazol-5-yl)oxolan-3-yl]prop-2-enamide] | 92.203% |
